Assay results reported in paper PMC4336329 (PLoS ONE, 2015).
Hit rate of the full screen: of about 310,000 compounds, about 2,200 (0.71%) showed an effect of 50% or more. Effects have a minus sign here. The list shows a part of the results.

Target: human ether-à-go-go-related gene (hERG) potassium channel (human, UniProt Q12809)
Test: primary screen, population patch clamp on CHO cells stably expressing hERG

Sequence of human ether-à-go-go-related gene (hERG) potassium channel (Q12809 whole entry, looked up): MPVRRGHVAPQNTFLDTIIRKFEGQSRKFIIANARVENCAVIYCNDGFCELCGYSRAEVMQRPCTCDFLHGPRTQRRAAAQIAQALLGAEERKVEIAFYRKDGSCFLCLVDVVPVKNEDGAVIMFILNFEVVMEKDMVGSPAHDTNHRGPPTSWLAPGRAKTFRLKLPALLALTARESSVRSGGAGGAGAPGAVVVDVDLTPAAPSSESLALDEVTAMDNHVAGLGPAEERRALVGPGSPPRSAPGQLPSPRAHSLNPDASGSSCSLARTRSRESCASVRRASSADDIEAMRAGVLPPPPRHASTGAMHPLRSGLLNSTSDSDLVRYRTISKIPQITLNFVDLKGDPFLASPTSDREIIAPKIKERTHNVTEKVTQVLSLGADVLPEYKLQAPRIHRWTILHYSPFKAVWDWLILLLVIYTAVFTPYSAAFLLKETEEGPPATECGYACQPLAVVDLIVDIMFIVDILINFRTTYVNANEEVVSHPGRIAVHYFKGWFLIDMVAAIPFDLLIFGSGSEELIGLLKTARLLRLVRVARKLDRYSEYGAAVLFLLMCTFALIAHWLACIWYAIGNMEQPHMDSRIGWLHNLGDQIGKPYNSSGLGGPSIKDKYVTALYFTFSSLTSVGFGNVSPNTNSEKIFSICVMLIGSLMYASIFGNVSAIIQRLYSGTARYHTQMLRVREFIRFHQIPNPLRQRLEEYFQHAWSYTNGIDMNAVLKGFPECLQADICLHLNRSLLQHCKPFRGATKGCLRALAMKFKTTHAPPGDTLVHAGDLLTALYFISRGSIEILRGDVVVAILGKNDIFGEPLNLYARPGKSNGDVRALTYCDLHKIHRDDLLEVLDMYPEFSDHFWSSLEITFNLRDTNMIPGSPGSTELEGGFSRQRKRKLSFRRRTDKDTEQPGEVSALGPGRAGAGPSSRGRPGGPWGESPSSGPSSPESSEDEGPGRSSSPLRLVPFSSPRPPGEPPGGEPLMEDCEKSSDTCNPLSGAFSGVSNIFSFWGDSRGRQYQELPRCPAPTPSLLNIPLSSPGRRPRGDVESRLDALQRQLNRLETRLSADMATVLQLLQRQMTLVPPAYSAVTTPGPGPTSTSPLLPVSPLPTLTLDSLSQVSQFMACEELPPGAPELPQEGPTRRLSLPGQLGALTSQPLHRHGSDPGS

SMILES | hERG current change (%, negative = inhibition) at 1uM [%]
CCOC(=O)C1=C(C)N(CCCC(=O)O)C(=O)NC1c1ccccc1OS(=O)(=O)c1ccc(C)cc1 (stereo not shown) | 11.8
O=C(CCN1C(=O)[C@H]2CC=CC[C@H]2C1=O)NCc1nc(-c2ccc(Cl)cc2)no1 | 5.81
Cc1ccc(CS(=O)(=O)CCC(=O)NCCN2CCCCC2C)cc1 (stereo not shown) | 9.58
COc1ccc(NC(=O)C2CCC(=O)N2C(=O)OCc2ccccc2)cc1 (stereo not shown) | 13.5
CCOC(=O)C1CCCN(c2c(NCCCN(C)c3ccccc3)c(=O)c2=O)C1 (stereo not shown) | 4.8
CCOC(=O)C1CCCN(S(=O)(=O)c2cn(C)c(=O)n(C)c2=O)C1 (stereo not shown) | 13.2
C=C1C(=O)O[C@H]2[C@H]1[C@H](OC(=O)CC(=O)O[C@@H]1C[C@@H](C)[C@@H]3C=CC(=O)[C@@]3(C)[C@H]3OC(=O)C(=C)[C@H]13)C[C@@H](C)[C@H]1C=CC(=O)[C@]12C | 19.2
Cc1ccc(CNC(=O)c2cc(C)nn2-c2ccccc2)cc1 | -9.03
CCC(=O)NC(=S)Nc1ccc(NC(=O)c2ccc([N+](=O)[O-])cc2)cc1 | 15.2
CCCC(=O)C1=C(O)C(C(=O)OC)C(C)(C)CC1=Nc1cccc2ccccc12 (stereo not shown) | 0.464
COCCN1C(=O)N(c2cccc(C)c2)C(=O)C1CC(=O)Nc1cc(OC)cc(OC)c1 (stereo not shown) | 10.9
COc1ccc(Cc2nnc(NC(=O)c3ccc(OC)cc3OC)s2)cc1 | 8.51
COc1ccc(CN2CCN(C(=O)c3cccs3)CC2)cc1.O=C(O)C(=O)O | 4.91
CCN(CC)S(=O)(=O)c1ccc(N2CCCCC2)c(C(=O)Nc2ccccc2N2CCOCC2)c1 | -16.4
O=C(CSc1ncnc2c1cnn2-c1ccccc1)Nc1ccccc1 | 8.54
O=C(Cn1cc(Cl)ccc1=O)c1ccc(Cl)cc1 | 17.9
CCC(NC(=O)C1CCCC1)c1ccc(C)cc1 (stereo not shown) | 13.5
COc1ccc(F)cc1CSc1nnnn1-c1ccc(O)cc1 | 7.91
Cc1cccc(C(=O)NCC(=O)NCCSc2ccc(Br)cc2)c1 | 5.89
CC(NC(=O)CN(c1ccccc1F)S(C)(=O)=O)c1ccccc1 (stereo not shown) | 3.41
CCN(Cc1ccccc1)C(=O)c1ccc(NC(=O)c2ccc(OC)cc2)cc1 | 20.1
Nc1cc(=O)[nH]c(SCC(=O)c2ccc(F)cc2)n1 | 6.43
COc1ccc(CN2CCN(Cc3ccc(C(F)(F)F)cc3)CC2)cc1.O=C(O)C(=O)O | -24.5
O=C(COc1ccc2c3c(c(=O)oc2c1)CCCC3)N[C@@H](Cc1ccccc1)C(=O)O | -9.98
NC(=O)CC(NC(=O)c1ccccc1)c1ccc(NCc2ccccc2)c([N+](=O)[O-])c1 (stereo not shown) | 21.7
CCCCN1C(=O)C(=O)NC[C@@H]1C(C)CC (stereo partly shown) | 15.4
CC(=C1C(=O)c2ccccc2C1=O)N1CCN(c2ccccn2)CC1 | 0.63
CCN(CC)CCOC(=O)c1ccc(N/C=C(/C#N)c2nc(-c3cccc(OC)c3)cs2)cc1 | 13.7

SMILES | hERG current change (%, negative = inhibition) at 1uM [%]
Cc1cc(C)c(NC(=O)CNC(=O)CN(C)Cc2ccc(Br)s2)c(C)c1 | 7.83
Cn1cccc1/C=C1\SC(=Nc2cccc(O)c2)NC1=O | 6.89
Cc1nc(Nc2ccccc2)sc1C(=O)Nc1ccccc1 | 13.3
NC(=O)C1CN(S(=O)(=O)c2ccc(Cl)cc2F)c2ccccc2O1 (stereo not shown) | 7.68
O=C(Cn1cccc1C(=O)c1ccccc1)NCc1ccco1 | 8.06
CN(CC(=O)Nc1ncn[nH]1)S(=O)(=O)c1ccc(Cl)cc1 | 11.8
CC1Cc2ccccc2N1C(=O)Cc1cccs1 (stereo not shown) | 7.82
COC(=O)C1CCN(C(=O)/C=C/c2ccccc2)CC1 | 11.1
CC(C)C(NC(=O)c1ccc2c(c1)OCO2)C(=O)N/N=C/c1cccs1 (stereo not shown) | 18.5
CC(=O)N1c2ccc(S(=O)(=O)N3CCCC3)cc2CC1C(=O)NCc1ccc(OC(C)C)cc1 (stereo not shown) | 12.2
CCOC(=O)C1=C(C)NC(=O)NC1c1ccc(C)o1 (stereo not shown) | 11.6
CCOC(=O)c1cnn(-c2ccc(F)cc2)c1N | 5.78
CC(=O)OCC(CCn1cnc2cnc(N)nc21)COC(C)=O | 16.8
CNCCCOc1cccc(OC(C)C)c1.O=C(O)C(=O)O | 7.86
O=C(Nc1ncc(S(=O)(=O)c2ccc([N+](=O)[O-])cc2)s1)c1ccccc1F | 14.3
Cc1ccc(-c2csc(NC(=O)C[n+]3cc(-c4ccccc4)n4c3CCC4)n2)cc1.[Cl-] | 6.26
CCOC(=O)c1nn(-c2ccc3ccccc3c2)cc1O | 13.1
COCCn1c(Cc2ccccc2)nnc1SCC(=O)Nc1cc(C)on1 | 3.43
CSc1ccc(/C=C(/NC(=O)c2ccco2)C(=O)N2CCOCC2)cc1 | -1.91
CCc1ccc(NC(=O)CCNS(=O)(=O)c2cccs2)cc1 | 11.2
O=C(N/N=C/c1ccc2c(c1)OCO2)c1cc(-c2ccc(F)cc2)nc2ccccc12 | 16.3
O=C(N/N=C/c1ccco1)c1ccc(NC(=O)c2ccccc2Cl)cc1 | 14
Cc1c(C(=O)N2CCc3ccccc3C2)oc2ccc(Br)cc12 | 11.7
Cc1noc(C)c1COC(=O)CCc1nc2ccccc2c(=O)[nH]1 | 11.5
CC(=O)Nc1ccc(C(=O)OCC(=O)NC(=O)NC2CCCCC2)cc1 | 4.04
O=C(CSc1ccc(-c2ccccn2)nn1)NC1CCCC1 | 12.9
CCN(CC)CC(C(=O)N(CC)CC)P(=O)(c1ccccc1)c1ccccc1 (stereo not shown) | 12.9
